Measurements taken from the RNAGym collection of RNA variant scans (doi:10.1101/gad.245936.114).
Variants at the floor of the assay are shown more often than the library holds them.

B1: tRNA (parent)
chain: CUCUCGGUAGCCAAGUUGGUUUAAGGCGCAAGACUUUAAUUUAUCACUACGAAAUCUUGAGAUCGGGCGUUCGACUCGCCCCCGGGAGAUUUUUUCCUCGAGCAA

Variants of: B1
Assay: nonsense suppression (GFP-seq) (ratio to wild type); higher = more function; SUP4oc tRNA, yeast GFP reporter sort-seq
Method in brief: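 Raffinose/galactose medium with 80 mg/L adenine was used to grow yeast carrying genome-integrated tRNA variants (~3% random-mutation library), RFP, and a galactose-driven GFP ochre reporter. Cells went into GFP/RFP bins, which were Illumina-sequenced, and variants with ≥100 reads and ≥30 cells were scored. Nonsense suppression (GFPSEQ) is the per-bin median GFP/RFP weighted by estimated cell share and expressed relative to the unmutated parent tRNA.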

Variant | nonsense suppression
G26U U35C G59U | ≤ 0.026
G26U U35C G84C | ≤ 0.026
G26U U57A | ≤ 0.026
G26U U57G U58C | ≤ 0.026
G26U U58A G84C | ≤ 0.026
G26U U58G | ≤ 0.026
G26U U63A C83A | ≤ 0.026
G26U U63C C81U G85A | ≤ 0.026
G26U U70G C79U | ≤ 0.026
G26U U76A G88A | ≤ 0.026
G26U U76G | ≤ 0.026
C27A A30U C83G | ≤ 0.026
C27A A31U G59C G66C | ≤ 0.026
C27A A33C U63C | ≤ 0.026
C27A A33U G69U | ≤ 0.026
C27A A54U U57C | ≤ 0.026
C27A A62C | 0.349
C27A A62G | ≤ 0.026
C27A A89C | ≤ 0.026
C27A C29G G65A | ≤ 0.026
C27A C34A | ≤ 0.026
C27A C34G | ≤ 0.026
C27A C34G A60U C77U | ≤ 0.026
C27A C34U | ≤ 0.026

Variant | nonsense suppression
C27A C56G | ≤ 0.026
C27A C56G A62C U63A | ≤ 0.026
C27A C56G U57G U63A | ≤ 0.026
C27A C64U | ≤ 0.026
C27A C64U U71G | ≤ 0.026
C27A C72U | ≤ 0.026
C27A G28C | ≤ 0.026
C27A G32A U35G G73C C80U | ≤ 0.026
C27A G32C A74G | ≤ 0.026
C27A G32U G69A | ≤ 0.026
C27A G61C | ≤ 0.026
C27A G65A | ≤ 0.026
C27A G66C | ≤ 0.026
C27A G78A | ≤ 0.026
C27A G84A G86C | ≤ 0.026
C27A G88U | ≤ 0.026
C27A U35G C72G | ≤ 0.026
C27A U55A | ≤ 0.026
C27A U55A C77G G78C A87C G88C | ≤ 0.026
C27A U55A G85A | ≤ 0.026
C27A U55C | 0.0902
C27A U55G G61A C83G | ≤ 0.026
C27A U57A C77G | ≤ 0.026
C27A U71C G88A | ≤ 0.026

Variant | nonsense suppression
C27A U76C | ≤ 0.026
C27G A30G U57A C77U | ≤ 0.026
C27G A30U C80U | ≤ 0.026
C27G A31C | ≤ 0.026
C27G A31G A54U U70C G84A | ≤ 0.026
C27G A31G C64U C80U | ≤ 0.026
C27G A33G G61A | ≤ 0.026
C27G A33U C34G C83G G85A | ≤ 0.026
C27G A60C C68A | ≤ 0.026
C27G A60C G84C | ≤ 0.026
C27G A62U | ≤ 0.026
C27G A74C G86A | ≤ 0.026
C27G A87C | ≤ 0.026
C27G A89U | ≤ 0.026
C27G C29A U57A | ≤ 0.026
C27G C29U U35A | ≤ 0.026
C27G C34G | ≤ 0.026
C27G C34G G61C G73A | ≤ 0.026
C27G C56A C77G | ≤ 0.026
C27G C56G G67U | ≤ 0.026
C27G C64U G78C | ≤ 0.026
C27G C68G G84A | ≤ 0.026
C27G C77A G88U | ≤ 0.026
C27G C77G | ≤ 0.026

Variant | nonsense suppression
C27G C79A | ≤ 0.026
C27G C80G A87C | ≤ 0.026
C27G C81G | ≤ 0.026
C27G C82G | ≤ 0.026
C27G C82U | ≤ 0.026
C27G C83G | ≤ 0.026
C27G G32C | ≤ 0.026
C27G G59A | ≤ 0.026
C27G G59C | ≤ 0.026
C27G G61A | ≤ 0.026
C27G G61C | ≤ 0.026
C27G G61C G85C | ≤ 0.026
C27G G65A | ≤ 0.026
C27G G65A C79A | ≤ 0.026
C27G G65U C79G | ≤ 0.026
C27G G65U G73C | ≤ 0.026
C27G G66U | ≤ 0.026
C27G G67C U70A U76A | ≤ 0.026
C27G G67U | ≤ 0.026
C27G G67U U71A | ≤ 0.026
C27G G69C | ≤ 0.026
C27G G69U U70A G84U | ≤ 0.026
C27G G73U | ≤ 0.026
C27G G78C | ≤ 0.026

Variant | nonsense suppression
C27G G86A | ≤ 0.026
C27G U35C C56U G67U U71C | ≤ 0.026
C27G U55A G61C | ≤ 0.026
C27G U55C A60C U76G G84C | ≤ 0.026
C27G U55C A60U C75G G86U | ≤ 0.026
C27G U57C | ≤ 0.026
C27G U57C G86C | ≤ 0.026
C27G U57G | ≤ 0.026
C27G U57G G73C A74C G88U | ≤ 0.026
C27G U57G G84C | ≤ 0.026
C27G U58A U63A | ≤ 0.026
C27G U58G A62C G78U | ≤ 0.026
C27G U63C | ≤ 0.026
C27G U71A C79G | ≤ 0.026
C27G U71G | ≤ 0.026
C27G U76A G84C | ≤ 0.026
C27U A31C C72U C79G | ≤ 0.026
C27U A31G C56G A62C C68U | ≤ 0.026
C27U A33C U57A | ≤ 0.026
C27U A54C | 0.0314
C27U A54U G61A | ≤ 0.026
C27U A60U G67U | ≤ 0.026
C27U A62C | ≤ 0.026
C27U A62U | 0.0346

Variant | nonsense suppression
C27U A74C A87C | ≤ 0.026
C27U A87C | ≤ 0.026
C27U C29A | ≤ 0.026
C27U C29G G69A G88U | ≤ 0.026
C27U C29G U55C G69A | ≤ 0.026
C27U C29U A62C | ≤ 0.026
C27U C29U A89C | ≤ 0.026
C27U C34G G61A | ≤ 0.026
C27U C56A G86C | ≤ 0.026
C27U C68A | ≤ 0.026
C27U C72A | ≤ 0.026
C27U C72G U76C | ≤ 0.026
C27U C81G | ≤ 0.026
C27U C82G | ≤ 0.026
C27U G28U A54C U71C G88C | ≤ 0.026
C27U G28U A74C C79G G86U | ≤ 0.026
C27U G32C C77G | ≤ 0.026
C27U G61A G69U | ≤ 0.026
C27U G61C | 0.0306
C27U G61U | ≤ 0.026
C27U G65A G69U | ≤ 0.026
C27U G65C G88U | ≤ 0.026
C27U G66C A87C | ≤ 0.026
C27U G66C G67C G73A A87C | ≤ 0.026

Variant | nonsense suppression
C27U G67C | ≤ 0.026
C27U G67U | ≤ 0.026
C27U G78C | ≤ 0.026
C27U G84U | ≤ 0.026
C27U G86C | ≤ 0.026
C27U G88C | ≤ 0.026
C27U U35G | ≤ 0.026
C27U U57A G85A | ≤ 0.026
C27U U58A | ≤ 0.026
C27U U58A G59A | ≤ 0.026
C27U U76A | ≤ 0.026
C27U U76C A89U | ≤ 0.026
G28A A30G C34U U55A U58G A87U | ≤ 0.026
G28A A31G | 0.98
G28A A31G U76G | ≤ 0.026
G28A A31U G66A G69A | ≤ 0.026
G28A A33U A54U C77A | ≤ 0.026
G28A A74C C79G G88A | ≤ 0.026
G28A A89C | ≤ 0.026
G28A C29A A89C | ≤ 0.026
G28A C29U C56A U70C | ≤ 0.026
G28A C34A | ≤ 0.026
G28A C34G C68U A74U | ≤ 0.026
